Screen size: about 310,000 compounds; about 14,000 (4.5%) showed an effect of 50% or more. The effect is printed as a negative number. This is one part of the list.
molecular target: human ether-à-go-go-related gene (hERG) potassium channel (human, UniProt Q12809); assay: primary screen, population patch clamp on CHO cells stably expressing hERG
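Further: peak tail current of the secondary pulse compared with the same well before compound.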

Sequence of human ether-à-go-go-related gene (hERG) potassium channel (Q12809 whole entry, looked up): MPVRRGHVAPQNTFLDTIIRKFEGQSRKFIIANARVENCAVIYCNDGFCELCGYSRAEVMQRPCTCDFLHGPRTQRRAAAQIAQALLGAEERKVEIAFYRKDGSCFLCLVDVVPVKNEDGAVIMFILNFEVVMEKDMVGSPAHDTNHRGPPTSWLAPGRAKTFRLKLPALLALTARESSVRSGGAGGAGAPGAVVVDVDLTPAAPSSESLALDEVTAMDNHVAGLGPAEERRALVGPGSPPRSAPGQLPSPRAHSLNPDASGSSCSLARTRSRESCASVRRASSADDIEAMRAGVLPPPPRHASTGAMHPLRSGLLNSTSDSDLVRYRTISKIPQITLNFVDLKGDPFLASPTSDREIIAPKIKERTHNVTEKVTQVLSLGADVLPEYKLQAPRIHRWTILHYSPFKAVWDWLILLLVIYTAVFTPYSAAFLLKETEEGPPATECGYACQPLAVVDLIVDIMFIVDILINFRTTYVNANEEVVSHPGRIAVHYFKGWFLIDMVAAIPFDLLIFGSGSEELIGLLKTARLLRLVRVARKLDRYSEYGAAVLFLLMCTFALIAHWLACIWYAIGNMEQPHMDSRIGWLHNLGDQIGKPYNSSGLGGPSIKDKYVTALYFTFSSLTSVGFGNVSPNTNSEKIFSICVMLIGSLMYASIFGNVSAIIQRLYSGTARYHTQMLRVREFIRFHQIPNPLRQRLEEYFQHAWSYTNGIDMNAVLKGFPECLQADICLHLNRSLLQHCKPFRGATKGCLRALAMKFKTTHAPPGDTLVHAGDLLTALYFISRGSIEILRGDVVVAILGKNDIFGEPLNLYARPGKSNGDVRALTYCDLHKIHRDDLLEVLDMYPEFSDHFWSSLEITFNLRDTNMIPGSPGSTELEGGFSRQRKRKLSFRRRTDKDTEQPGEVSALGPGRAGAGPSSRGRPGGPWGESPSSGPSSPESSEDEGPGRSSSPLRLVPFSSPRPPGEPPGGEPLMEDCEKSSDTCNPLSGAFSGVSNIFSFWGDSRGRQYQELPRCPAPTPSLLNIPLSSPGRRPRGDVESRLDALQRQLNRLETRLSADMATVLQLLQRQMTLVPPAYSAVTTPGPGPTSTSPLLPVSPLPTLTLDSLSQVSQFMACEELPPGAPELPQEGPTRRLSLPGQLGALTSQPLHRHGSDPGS

| SMILES | hERG current change (%, negative = inhibition) at 10uM |
| --- | --- |
| COC(=O)C(NC(=O)c1ccccc1)=C1CCCCC1 | 15% |
| COCc1ccc(CN2CCCC(C(=O)Nc3ccccc3-c3ccc(OC)cc3)C2)o1 (centres unmarked) | -21.3% |
| COc1ccc(NC(=O)CNC(=O)Cn2cnc3sc(C)c(C)c3c2=O)cc1OC | 4.39% |
| C=CCn1c(O)c(N=NC(=O)CNC(=O)c2ccco2)c2ccccc21 | -4.55% |
| O=C(O)CC12CC3CC(C1)CC(n1ncc(NCC4CCCO4)c(Cl)c1=O)(C3)C2 (centres unmarked) | 4.51% |
| O=C1CCC(C(=O)OCc2ccccc2)N1 (centres unmarked) | 10.5% |
| O=C1COc2ccc(C(=O)COC(=O)CCc3ccc(S(=O)(=O)N4CCOCC4)cc3)cc2N1 | -33.2% |
| CCOC(=O)c1ccc(N2C(=O)C(O)=C(C(C)=O)C2c2ccccc2)cc1 (centres unmarked) | 12% |
| CCCCC(CCCCl)C(=O)Nc1ccccc1 (centres unmarked) | 19% |
| O=C(CN1CCN(c2ccccc2O)CC1)NNC(=O)c1ccc(Cl)cc1 | -18.9% |
| CCOc1ccc(-c2cc(C)[n+](CCN(CC)CC)c(-c3ccc(OCC)cc3)c2)cc1.[O-][Cl+3]([O-])([O-])[O-] | -79.3% |
| COC(=O)c1ccccc1NC(=O)C(=O)NCc1ccncc1 | -6.14% |
| Nc1ccccc1SCC(O)Cn1ccc2ccccc21 (centres unmarked) | -4.33% |
| CC(=O)N1N=C(c2ccc(Br)cc2)OC1(C)CC(=O)Nc1ccccc1 (centres unmarked) | -1.01% |
| Cc1ccc(-c2nc(COC(=O)C3=NN(c4ccccc4)C(=O)CC3)cs2)cc1 | -32.2% |
| CN(C)c1cc(NC(=O)CNC(C)(C)CC(C)(C)C)c2ccccc2n1.O=C(O)C(=O)O | -69.9% |
| O=[N+]([O-])c1cccc(-c2nnc3n2CCCCC3)c1 | 24.7% |
| CC(=O)/C(=N/Nc1ccccc1)N1CCOCC1 | -13.8% |
| CCOc1ccccc1N1CCN(C(=O)CC(C)C)CC1 | 4.57% |
| CCn1cc(C(=O)N2CCCC(CO)(Cc3ccccc3C)C2)cn1 (centres unmarked) | 11.7% |
| O=C(NCCc1ccccc1)c1c(F)c(F)c(F)c(F)c1F | -9.42% |
| COc1ccc(C(=O)NC(=S)Nc2ccccc2N2CCN(S(C)(=O)=O)CC2)cc1OC | -5.71% |
| COC(=O)c1cc(S(=O)(=O)N2CCN(c3ccc(C(C)=O)cc3)CC2)c[nH]1 | 7.76% |

| SMILES | hERG current change (%, negative = inhibition) at 10uM |
| --- | --- |
| O=C(O)CCC(=O)Nc1ccc(-c2csc(Nc3cccc4ccccc34)n2)cc1 | 8.77% |
| CC(C)N(C)C1CCN(S(=O)(=O)c2ccc(-c3ccc(=O)[nH]n3)s2)CC1 | -7.84% |
| O=C(Nc1csc([N+](=O)[O-])c1)Nc1ccccc1Cl | 20% |
| Cc1cccc(/C=N/n2c(-c3ccncc3)n[nH]c2=S)c1 | 13.1% |
| Cc1ccc(S(=O)(=O)c2cc3ccccc3oc2=Nc2ccc3c(c2)OCCO3)cc1 | 6.71% |
| Cc1nc2ncnn2c(N2CCCC(C(=O)Nc3ccc4c(c3)CCC4)C2)c1C (centres unmarked) | -53% |
| CCC(=O)Nc1cc(C(=O)OC(C(=O)c2ccc(C)c(C)c2)c2ccccc2)ccc1C (centres unmarked) | -7.01% |
| CS(=O)(=O)N(Cc1ccccc1)c1ccc(C(=O)NCC2CCCO2)cc1 (centres unmarked) | 0.814% |
| CC(C)CCNC(=O)CN(C(=O)CCC(=O)Nc1ccccn1)c1ccc(F)c(Cl)c1 | 11.1% |
| Cl.c1ccc(COc2ccccc2CNCc2cccnc2)cc1 | -8.89% |
| COc1cc([N+](=O)[O-])cc([N+](=O)[O-])c1NC(=O)N1CCOCC1 | 4.88% |
| O=C(Cn1cc([N+](=O)[O-])cn1)N1N=C(C(F)F)CC1(O)C(F)F (centres unmarked) | -4.71% |
| CC(C)c1ccc2[nH]c3c(c2c1)CCC/C3=N\NC(=O)c1ccncc1 | 5.62% |
| CN1CCN(C2=C(NS(=O)(=O)c3cccs3)C(=O)c3ccccc3C2=O)CC1 | -18.8% |
| CC1(C)c2ccccc2N(CC(N)=O)C12C=Cc1ccccc1O2 (centres unmarked) | -26% |
| CCn1c(SCC(=O)N2CCc3ccccc32)nnc1-c1c[nH]c2ccccc12 | 11.8% |
| Cc1cc(N2C(=O)C3C4CCC(C4)C3C2=O)no1 (centres unmarked) | 15.8% |
| Cc1nn(-c2ccc(F)cc2)c(Cl)c1/C=N/NC(=O)c1cccs1 | 10.4% |
| COc1cc2c(cc1OC)C(c1ccc(C)cc1)NC(=O)C2 (centres unmarked) | 19.9% |
| COc1cc2[nH]c(=O)n(CCCCCC(=O)N3CCN(c4ccccn4)CC3)c(=O)c2cc1OC | -13.6% |
| c1ccc(Sc2ncccn2)nc1 | 12.2% |
| CC1(C)Cc2c(c(N3CCOCC3)nc3sc4c(NN)ncnc4c23)CS1 | -5.43% |
| CCCCn1c(N)c(N(CCC(C)C)C(=O)CCCc2nc3ccccc3s2)c(=O)[nH]c1=O | 10.2% |

| SMILES | hERG current change (%, negative = inhibition) at 10uM |
| --- | --- |
| CC(/C=C/c1ccco1)=N\NC(=O)c1cc(Cl)ccc1O | 12.1% |
| COc1ccc(-c2cc(C(F)(F)F)nc(-n3ccnc3C)n2)cc1 | -7.53% |
| Cc1ccc(C(=O)N/C(=C\c2cccs2)C(=O)NCCc2c[nH]c3ccccc23)cc1 | -16.2% |
| COCCOC(=O)C1=C(N)OC2=C(C(=O)CCC2)C1c1cccnc1 (centres unmarked) | -3.23% |
| COC(=O)Cn1c(N)[n+](Cc2ccccc2)c2ccccc21.[Br-] | -9.48% |
| COc1cc(NC(=O)NC2Cc3ccccc3C2)cc(OC)c1 | 8.22% |
| CCN(CC)S(=O)(=O)c1c(OC)cc(C)c(Cl)c1C | -12.5% |
| CCN1CCN(/C=N/c2nc(C)cs2)CC1 | 1.97% |
| O=[N+]([O-])c1cccc(/C=N/Nc2nc(N3CCCCC3)nc(N3CCCCC3)n2)c1 | -9.67% |
| CCCOc1c(Br)cc(/C=N/O)cc1OC | 1.68% |
| Oc1[nH]c2ccccc2c1C1=NCCCCC1 | 2.73% |
| Nc1nc(Nc2cccc(C(F)(F)F)c2)nc(C(F)(F)F)n1 | -14.1% |
| COc1ccc(CCNC(=O)c2n[nH]c(=O)c3ccccc23)cc1 | 22% |
| CNS(=O)(=O)c1ccc(NC(=O)C2CC(=O)N(c3ccc(Cl)cc3)C2)cc1 (centres unmarked) | 8.44% |
| O=C1NC(O)(c2ccccc2)Oc2ccccc21 (centres unmarked) | 16% |
| CCOc1ccc(CNC(=O)CCS(=O)(=O)Cc2cccc(Cl)c2)cc1OC | -12.1% |
| COc1ccc(CNC(=O)Nc2ccc(C)cc2)cc1 | 8.62% |
| COc1ccc2[nH]c(CN3CCN(CC=C(C)C)C(CCO)C3)c(C)c2c1 (centres unmarked) | -17.1% |
| CCCC(C(=O)n1nc(C)cc1C)C(NS(=O)(=O)c1ccc(C)cc1)c1ccccc1 (centres unmarked) | 8.29% |
| CCC1(C(=O)OC)NC(c2ccccc2OC)C2C(=O)N(C)C(=O)C21 (centres unmarked) | 19.1% |
| S=C(NCc1ccco1)N1CCN(Cc2ccc(Cl)cc2Cl)CC1 | -36.3% |
| O=C(c1cnsn1)N1CCN(c2ccccc2)CC1 | -1.86% |
| Cc1ccccc1NC(=O)NC1CCS(=O)(=O)C1 (centres unmarked) | 16.6% |

| SMILES | hERG current change (%, negative = inhibition) at 10uM |
| --- | --- |
| O=C1CC(Cc2ccc(Cl)cc2)C(=O)N1c1ccccn1 (centres unmarked) | 1.83% |
| CCOC(=O)C1CCN(Cc2ccc(OC)c(C)c2OC)CC1 | -25.2% |
| Cn1c(=O)cc(SCC(=O)Nc2ccccn2)c2ccccc21 | -2.45% |
| Cc1cc2ccccn2c1C(=O)c1ccccc1F | 5.93% |
| CCOc1ccccc1NC(=O)CC1Nc2ccccc2NC1=O (centres unmarked) | -1.88% |
| Cc1c(NC(=O)C(=O)/C=C(\O)c2ccc(Cl)cc2)c(=O)n(-c2ccccc2)n1C | -1.52% |
| CCN(CC)P(=O)(NC(=O)c1cccn1C)N(CC)CC | 4.72% |
| CCOC(=O)c1c(C)n(C)c2ccc(O)c(S(=O)(=O)c3ccccc3)c12 | -13.9% |
| O=C(N/N=C/C(Cl)=C/c1ccc([N+](=O)[O-])cc1)C(=O)Nc1ccc(C(=O)O)cc1 | 12.2% |
| CC(C)CC(C(=O)OCC(=O)Nc1cccc(Cl)c1)N1C(=O)C2CC=CCC2C1=O (centres unmarked) | 7.75% |
| c1cnc(SCCOc2cccc3ccccc23)nc1 | -8.05% |
| O=C(NCC1CCCO1)c1onc(CSc2ccc(F)cc2)c1C(=O)O (centres unmarked) | 1.83% |
| Cc1ccc(C(=O)N/C(=C\c2ccc(-c3cccc([N+](=O)[O-])c3)o2)C(=O)NCCCN(C)C)cc1 | -67.6% |
| Cc1ccc(-c2cnc3cc(C)nn3c2)cc1 | 7.09% |
| CCC(CC)CN1CCN=C1Nc1ccccc1 | -6.05% |
| Cc1ccc(S(=O)(=O)Nc2nc3ccccc3nc2NCc2ccc3c(c2)OCO3)cc1C | 0.353% |
| CC(=O)N1CCSc2ccc(S(=O)(=O)NCc3ccccc3)cc21 | -2.74% |
| COc1ccc(S(=O)(=O)N2CCCC2CNC(=O)C(=O)NC2CC2)cc1 (centres unmarked) | 4.37% |
| CCOc1ccc(S(=O)(=O)NCCC(=O)NCC2(N3CCCCC3)CCCCC2)cc1 | -33.2% |
| N=C1C(c2nc3ccccc3[nH]2)=C(O)CN1C1CCCCC1 | 6.22% |
